In the supplement of paper PMC11383711:
This is one part of the list. Binding of human antibodies (heavy:light variable regions, tested as scFv in one mRNA-display pool) to influenza hemagglutinin, with or without the stem antibody CR9114 bound first. Score = (mean enrichment − median) / interquartile range of that screen; higher = more enriched, 0 = typical non-binder. Active = above the paper's cut-off per screen: stems 28; unblocked H1 Solomon Islands 5, H1 Michigan 3, H3 5, H5 19, H7 2.85, both B 5; blocked 9, 7, H5 10, H7 10, B Phuket 10, B Lee 11.5. Scores are scaled within each screen and are no affinities; replicates correlate at about 0.6 to 0.9, and antibodies rare in the pool are noisier.

B1: K77-1D09 (protein)
chain 1: QVQLQESGPGLVKPSETLSLTCTVSDGSVSSSSYFWGWIRQPPGKGLEWIGSIYYTGDTDYNPSLKGRVTISVDSSKNQFSLRLSSLTAADTAVYYCAREGPAWVRYSFDYWGQGSLVTVSS
chain 2: QSALTQPASVSGSPGQSITISCTGTSSDVDDYNYVSWYQQDPGKAPKLIIYHVNKRPSGVSHRFSGSKSGNTASLTISGLQAEDEADYYCSSYTSSNTPVVFGGGTKLTVL
B2: R95-1H06 (protein)
chain 1: LVQLQESGPGLVKPSETLSLTCTVSGDSFTTYYWSWIRQPPGKGLEWIGYIYTIGRTHYNPALKSRVAISVDTSKNQFSLNLTSVTAADTAVYYCARIRIRGADYPFDHWGQGSLVTVHS
chain 2: SYELTQPPSVSVAPGQTARISCGGDNIGSKNVHWYQQKPGRAPVLVVYDDTDRPSGIPDRFSGSNSGDTATLTITRLEAGDEADYYCHVWDSTGDHQGVFGGGTKLTVL
B3: K77-2H01 (protein)
chain 1: EVQLVQSGAEVKKPGESLKISCEASGDNFSSYWIAWVRQMPGKGLEWMGIIYPGDSDTRYSPPFQGQVTISADKSIRTAYLQWSSLKASDTAMYYCATSMMSFYYDESDAFRWALAAFDIWGHGTPVTVSS
chain 2: EIVLTQSPGTLSLSPGERATLSCRASQSVASSSLAWYQQKPGQAPRLLIYSTSNRATGIPGRFSGSGSGTDFILTVNRLEPEDFAVYYCQHNDSSPAWSFGQGTKVEI
B4: antibody 3E01 (protein)
chain 1: VQLQESGPGLLKPSETLSLICSVSDYSVTTSTSYWGWIRQTPGKGLEWIGSLSYSGFSYYNPSLRSRVTMSFDSSKKQVSLRLNSVTAADTAVYYCAILYGSIIDYWGPGILVTVSS
chain 2: DIQMTQSPSTLSASVGDRVTITCRASQSIRTWLAWYQQKPGKAPKLLISRASILESGDPSRFSGSGSGTEFTFTISSLQPDDFATYYCQHYNNYWWTFGQGTKVEIK
B5: SFV020-5C05 (protein)
chain 1: VQLVESGGGVVQPGRSLRLSCAASGFSFSNYGIHWVRQVPGKGLEWVAVISHAGAYKYYADSVRGRFTISRDNSKNILYLQMNSLRVEDTAVYYCATLGGDIVVVSAERSGYYYGLDVWGQGTTVTVSS
chain 2: DIQMTQSPSTLSASVGDRVTITCRASQSISNRLVWYQQKPGTAPKLLIYQASTLEGEVPSRFSGSGSGTEFTLTITSLQPDDLATYFCQQYNTNSRTFGQGTKVEIK
B6: antibody 1D05 (protein)
chain 1: VQLLESGGGLVQPGGSLRLSCAASGFAFNTYAMSWVRQAPGKGLEWVSASGGLHGASYYADSVQGRFTIYRGNSKSTLYLQMNYLRAEDTAVYYCATDLDGDEGTWFENWGQGTLVTVSS
chain 2: EIVMTQSPATLSVSPGERATLSCRASQSLSNNLTWYQQKPGQAPRLLIYGASTRATGLPARFSGSGSGTEFTLTISSLQSEDFAVYFCQQYNNWPPTFGQGTKVEIK

Biological target: Influenza A H1N1 A/Michigan/45/2015 hemagglutinin ectodomain
Assay: mRNA display binding score; higher = more enriched on the antigen
Details: antigen blocked with: 2 µM CR9114 IgG
Procedure: (§1)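 A pool of natively paired antibodies, displayed as scFv on mRNA, was selected once on antigen-coated beads and sequenced before and after; two replicates.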

Binder | mRNA display binding score
B1 | inactive: -0.198
B2 | inactive: -0.22
B3 | inactive: 0.246
B4 | inactive: -0.499
B5 | active: 8.91
B6 | inactive: -0.293

Same assay, conditions: antigen blocked with: nothing

Binder | mRNA display binding score
B1 | inactive: -0.6
B2 | inactive: -0.696
B3 | inactive: -0.153
B4 | inactive: -0.35
B5 | inactive: 0.182
B6 | inactive: -0.53

Biological target: Influenza A H1N1 A/Solomon Islands/3/2006 hemagglutinin ectodomain
Assay: as above
Details: antigen blocked with: 2 µM CR9114 IgG
Procedure: as §1

Binder | mRNA display binding score
B1 | inactive: -0.541
B2 | inactive: 0.108
B3 | inactive: 0.977
B4 | inactive: -0.375
B5 | inactive: 0.205
B6 | inactive: 0.137

Same assay, conditions: antigen blocked with: nothing

Binder | mRNA display binding score
B1 | inactive: 0.229
B2 | inactive: -0.381
B3 | inactive: -0.382
B4 | inactive: -0.237
B5 | inactive: -0.199
B6 | inactive: 0.542

Biological target: Influenza A H3N2 A/Singapore/INFIMH-16-0019/2016 hemagglutinin ectodomain
Assay: as above
Details: antigen blocked with: nothing
Procedure: as §1

Binder | mRNA display binding score
B1 | inactive: -0.553
B2 | inactive: -0.147
B3 | inactive: 0.491
B4 | inactive: -0.457
B5 | inactive: -0.0612
B6 | inactive: -0.303

Biological target: Influenza A H5N1 A/Qinghai/1A/2005 hemagglutinin ectodomain
Assay: as above
Details: antigen blocked with: 2 µM CR9114 IgG
Procedure: as §1

Binder | mRNA display binding score
B1 | inactive: -0.454
B2 | inactive: -0.456
B3 | inactive: 0.465
B4 | inactive: -0.774
B5 | inactive: -0.0297
B6 | inactive: -0.0531

Same assay, conditions: antigen blocked with: nothing

Binder | mRNA display binding score
B1 | inactive: -0.139
B2 | inactive: -0.606
B3 | inactive: -0.127
B4 | inactive: -0.0636
B5 | inactive: -0.305
B6 | inactive: -0.358

Biological target: Influenza A H7N9 A/Shanghai/2/2013 hemagglutinin ectodomain
Assay: as above
Details: antigen blocked with: 2 µM CR9114 IgG
Procedure: as §1

Binder | mRNA display binding score
B1 | inactive: -0.434
B2 | inactive: -0.27
B3 | inactive: -0.49
B4 | inactive: 0.776
B5 | inactive: -0.245
B6 | inactive: 0.0528

Same assay, conditions: antigen blocked with: nothing

Binder | mRNA display binding score
B1 | inactive: -0.525
B2 | inactive: -0.583
B3 | inactive: -0.0665
B4 | inactive: -0.389
B5 | inactive: -0.149
B6 | inactive: -0.2

Biological target: Influenza B/Lee/1940 hemagglutinin ectodomain
Assay: as above
Details: antigen blocked with: 2 µM CR9114 IgG
Procedure: as §1

Binder | mRNA display binding score
B1 | inactive: -0.686
B2 | inactive: 0.738
B3 | inactive: -0.689
B4 | inactive: 1.01
B5 | inactive: -0.473
B6 | inactive: -0.353

Same assay, conditions: antigen blocked with: nothing

Binder | mRNA display binding score
B1 | inactive: -0.344
B2 | inactive: -0.393
B3 | inactive: -0.247
B4 | inactive: -0.0783
B5 | inactive: -0.0715
B6 | inactive: -0.343

Biological target: Influenza B/Phuket/3073/2013 hemagglutinin ectodomain
Assay: as above
Details: antigen blocked with: 2 µM CR9114 IgG
Procedure: as §1

Binder | mRNA display binding score
B1 | inactive: -0.552
B2 | inactive: -0.111
B3 | inactive: -0.206
B4 | inactive: -0.366
B5 | inactive: 0.0674
B6 | inactive: -0.48

Same assay, conditions: antigen blocked with: nothing

Binder | mRNA display binding score
B1 | inactive: -0.192
B2 | inactive: -0.0775
B3 | inactive: 0.171
B4 | inactive: -0.203
B5 | inactive: -0.294
B6 | inactive: -0.144
